According to the supplement of paper PMC10126150:
Values marked as one replicate rest on one cluster of the flow cell; about a third of the high ones do not repeat.

The sequences below were run on ATP (assay: switch fluorescence ratio, 500 uM ATP over buffer (Cy3 cluster intensity, sum of 5 cycles each) (fold (ratio)); higher = stronger signal-on switching upon ATP binding; sequences stand for … in TCGTCGGCAGCGTCAGATGTGTATAAGAGACAGTTTTTTTTTTTTTTTTTTTTTTTTT…TC). Conditions: aptamer strand: ATP DNA aptamer (quencher-CACCTGGGGGAGTATTGCGGAGGAAGG + anchor), 100 nM annealed; ATP concentration: 500 uM; one replicate.
Summary of the method: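 After annealing to 100 nM quencher-labelled ATP aptamer, Cy3-labelled switching-strand clusters on a modified Illumina MiSeq flow-cell were imaged in selection buffer. A second image followed after 15 min with 500 uM ATP at 22 °C, and five such buffer/ATP cycles were done, each separated by NaOH stripping and re-annealing. The fluorescence ratio, averaged per switch-domain sequence, is summed target-cycle over summed buffer-cycle Cy3 intensity per cluster, with clusters outside 100-1000 RFU excluded.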
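Note: ATP exposure 15 min at 22 °C before imaging.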

| Sequence | switch fluorescence ratio |
| --- | --- |
| GACAGGCTG | 0.883 |
| GACAGTAAAT | 1.1 |
| GACAGTAGGA | 1.01 |
| GACAGTGAT | 1.03 |
| GACATAAGAC | 1.45 |
| GACATAAGCG | 0.986 |
| GACATACGCC | 1.47 |
| GACATAGGGG | 1.01 |
| GACATCTCTG | 1.09 |
| GACATGTCTG | 0.986 |
| GACATTCATA | 0.996 |
| GACATTGAGG | 0.99 |
| GACCAGGCTG | 1.05 |
| GACCCAGACA | 1.04 |
| GACCCATATG | 1.04 |
| GACCCCGTCA | 1.02 |
| GACCCGCTGA | 1.59 |
| GACCCGGGAT | 1.05 |
| GACCCTCACG | 1.06 |
| GACCCTGAAC | 1.46 |
| GACCGCACAG | 1.22 |
| GACCGCCGAT | 1.11 |
| GACCGCGCAC | 3.04 |
| GACCGCGGAA | 1.01 |
| GACCGCTTTA | 1.31 |

| Sequence | switch fluorescence ratio |
| --- | --- |
| GACCGGAGGC | 0.996 |
| GACCGGCACG | 1.07 |
| GACCGGCGTG | 1.01 |
| GACCGTAGGG | 0.979 |
| GACCGTATGA | 1.09 |
| GACCGTTGGC | 0.996 |
| GACCTAATGT | 1.15 |
| GACCTCACTC | 1.38 |
| GACCTCGAG | 0.98 |
| GACCTCGCGA | 2.26 |
| GACCTGGAAA | 1.05 |
| GACCTGTTCG | 0.979 |
| GACCTGTTGT | 1.02 |
| GACCTTAACT | 1.05 |
| GACCTTAGGG | 1.06 |
| GACCTTCAGT | 1.01 |
| GACCTTCGTG | 0.993 |
| GACCTTGGAC | 1.01 |
| GACCTTTATG | 0.927 |
| GACGACACAT | 2.29 |
| GACGAGGGA | 1.08 |
| GACGATAGCA | 1.37 |
| GACGATGTTC | 1.08 |
| GACGCAGAAG | 1.96 |
| GACGCAGCGT | 1.04 |

| Sequence | switch fluorescence ratio |
| --- | --- |
| GACGCAGTGT | 1.33 |
| GACGCCAAGG | 1.1 |
| GACGCCAGTC | 1.01 |
| GACGCCCAAA | 1.33 |
| GACGCGAGTA | 1.11 |
| GACGCGTAAC | 5.95 |
| GACGCGTACT | 3.13 |
| GACGCTATCC | 2.47 |
| GACGGAAGCC | 1.83 |
| GACGGCGAAG | 0.986 |
| GACGGCGATT | 1.05 |
| GACGGGGCGA | 1.08 |
| GACGGGGTAT | 1.18 |
| GACGGTACGA | 1.12 |
| GACGGTAGAC | 1.87 |
| GACGTACGGG | 1.48 |
| GACGTAGTGC | 1.78 |
| GACGTCCTAG | 0.993 |
| GACGTCTGGA | 0.994 |
| GACGTGAGCT | 1.09 |
| GACGTGATTG | 0.994 |
| GACGTGCGTA | 1.04 |
| GACGTGTTCA | 1.01 |
| GACGTTAGG | 0.97 |
| GACGTTATTT | 1.05 |

| Sequence | switch fluorescence ratio |
| --- | --- |
| GACGTTCAGC | 1.07 |
| GACTACATCA | 1.06 |
| GACTACCTTT | 1.05 |
| GACTAGCAGC | 1.11 |
| GACTAGCCTA | 1 |
| GACTAGCGTG | 0.98 |
| GACTAGTCTC | 1.02 |
| GACTATAGG | 0.982 |
| GACTATCCC | 0.997 |
| GACTCCATTA | 1.08 |
| GACTCCCACT | 1.71 |
| GACTCCTATT | 1.16 |
| GACTCTTATA | 1.05 |
| GACTCTTTTC | 0.975 |
| GACTGAAAA | 0.989 |
| GACTGACTCA | 1.14 |
| GACTGAGCCT | 1.06 |
| GACTGATATC | 1.03 |
| GACTGCATCT | 1.03 |
| GACTGGAAGA | 1 |
| GACTGGGCCG | 0.946 |
| GACTGGTGAG | 0.953 |
| GACTGTGGCC | 1.05 |
| GACTGTGTAA | 0.997 |
| GACTTAGAAA | 0.969 |

| Sequence | switch fluorescence ratio |
| --- | --- |
| GACTTATA | 1.01 |
| GACTTCAAAT | 1.02 |
| GACTTCAGGG | 1.03 |
| GACTTCATGT | 1.02 |
| GACTTCCGGG | 1.11 |
| GACTTCGGAC | 1.21 |
| GACTTCTACG | 0.985 |
| GACTTGGGG | 0.996 |
| GACTTGGGGG | 1.02 |
| GACTTTCACT | 1.08 |
| GAGAAATTGA | 1.02 |
| GAGAACCTTA | 1.21 |
| GAGAAGATAA | 1.05 |
| GAGAATGAAG | 0.973 |
| GAGAATGATA | 1.01 |
| GAGAATTCGA | 0.99 |
| GAGACATGTG | 1.11 |
| GAGACTGAAT | 0.985 |
| GAGACTGCTC | 0.973 |
| GAGAGAAATC | 0.953 |
| GAGAGAACGG | 0.98 |
| GAGAGAGTC | 0.924 |
| GAGAGCCGCG | 1.02 |
| GAGAGCTCT | 1.05 |
| GAGAGGCCTT | 1.06 |

| Sequence | switch fluorescence ratio |
| --- | --- |
| GAGAGGGCGC | 0.97 |
| GAGAGTCAGT | 1.05 |
| GAGAGTCCGA | 1.06 |
| GAGATAGCT | 0.995 |
| GAGATCGATG | 0.954 |
| GAGATCGGAT | 1.03 |
| GAGATTCGG | 0.94 |
| GAGATTTGTT | 1 |
| GAGCAAAATA | 1.03 |
| GAGCAAAATG | 1.08 |
| GAGCACCACG | 1.06 |
| GAGCCAAGCA | 1 |
| GAGCCACCGA | 1.04 |
| GAGCCATTAT | 1.02 |
| GAGCCCACC | 1.02 |
| GAGCCGAACA | 0.992 |
| GAGCGATTCA | 1.04 |
| GAGCGCTCCT | 0.992 |
| GAGCGGGGCC | 0.968 |
| GAGCGGGTAT | 0.979 |
| GAGCGTAATA | 1.37 |
| GAGCTGGTGA | 0.978 |
| GAGCTTAGAC | 1.06 |
| GAGGAAACCA | 1.08 |
| GAGGAAATTA | 1.01 |

| Sequence | switch fluorescence ratio |
| --- | --- |
| GAGGAAGTAG | 1.02 |
| GAGGAATAAG | 1 |
| GAGGACATTC | 1 |
| GAGGAGCGGG | 1.05 |
| GAGGAGTGCC | 1.04 |
| GAGGATAGGC | 0.96 |
| GAGGATCCGA | 0.943 |
| GAGGCAAGCA | 1.11 |
| GAGGCACAGG | 1.32 |
| GAGGCAGACA | 1.07 |
| GAGGCATCTG | 0.989 |
| GAGGCATTTA | 1.09 |
| GAGGCCCCGT | 1.03 |
| GAGGCCGACA | 0.997 |
| GAGGCCGGTG | 1 |
| GAGGCCTACC | 0.959 |
| GAGGCCTCCT | 0.965 |
| GAGGCGAGCG | 0.972 |
| GAGGCGCTGT | 0.964 |
| GAGGCTCATA | 1.02 |
| GAGGCTTCGG | 0.957 |
| GAGGGACAAG | 1.04 |
| GAGGGACCAC | 1.02 |
| GAGGGATAC | 1.35 |
| GAGGGCAAGA | 1.08 |

| Sequence | switch fluorescence ratio |
| --- | --- |
| GAGGGGAGTT | 0.998 |
| GAGGGGCAAT | 1.05 |
| GAGGGTAGAC | 1.04 |
| GAGGGTAGGC | 1.01 |
| GAGGGTCGAA | 0.981 |
| GAGGGTGGCA | 1.07 |
| GAGGGTGGGT | 0.953 |
| GAGGTAAATA | 1.09 |
| GAGGTACATC | 0.993 |
| GAGGTACCTC | 0.987 |
| GAGGTAGGGT | 0.962 |
| GAGGTCATCG | 1.01 |
| GAGGTCGTTG | 1.03 |
| GAGGTCTTAG | 0.972 |
| GAGGTGGTTT | 1 |
| GAGGTGTATC | 0.974 |
| GAGGTGTGCT | 0.98 |
| GAGGTTGTGT | 0.937 |
| GAGGTTGTTC | 0.964 |
| GAGTAACTTC | 0.937 |
| GAGTAAGCG | 0.967 |
| GAGTACCGCT | 0.978 |
| GAGTACCGGG | 1.01 |
| GAGTAGCGCG | 0.976 |
| GAGTATCAAA | 1.03 |
